GI50 and TGI data for four compounds are collected here from PubChem BioAssay (NCI).

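1) Cells in 96-well plates. 2) Compound, 48 h, 5 concentrations. 3) Linear interpolation between surrounding doses. 4) Unreached endpoint = highest concentration. The concentration for 50% growth inhibition is given as GI50. The concentration for full growth arrest is given as TGI.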

In the experiment the test system is NCI-H322M lung. Briefly: NCI tumour cell line growth inhibition, 48 h.

Turning to `Cc1ccc(C(=O)Nc2ccc(CNCCN3CCNCC3)c(C(F)(F)F)c2)cc1C#Cc1cnc2cccnn12`, the GI50 was 1.85 µM and the TGI was found to be 3.6 µM.

For `O=C(CNc1nc(-c2cccc([N+](=O)[O-])c2)cs1)Nc1cccc([N+](=O)[O-])c1`, the GI50 is 2.32 µM and the TGI was found to be 6.03 µM.

Take `NC(N)=Nc1ccc(Oc2cccc(NC(N)=Nc3ccc(Cl)c(C(F)(F)F)c3)c2)cn1`: the GI50 is 1.69 µM and the TGI came to 3.85 µM.

In the case of `COc1cc(-c2ccc3ncnc(NCc4ccccc4)c3c2)cnc1OC`, the GI50 is 2.77 µM and the TGI is 25.5 µM.
